Source: the supplement of paper PMC8728848
Some of the results follow.

What was measured:
Assay in all cases: glycan array binding signal (z-score within array); higher = stronger binding
Settings in all cases: glycan notation: IUPAC condensed, linker removed
Fuc(a1-2)Gal = target: Fuc(a1-2)Gal
Method in brief: (§1)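 Glycan array data came from 3228 arrays in the Consortium for Functional Glycomics database, and only arrays with an available protein sequence were kept. Glycan names were put into IUPAC-condensed notation, and columns mapping to the same glycan were averaged. The binding signal is a within-array Z-score, averaged across arrays of one protein sequence run at different concentrations or buffers and across linkers. A negative Z-score can be read as non-binding.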

Fuc(a1-2)Gal(b1-3)GalNAc = target: Fuc(a1-2)Gal(b1-3)GalNAc
Method in brief: as §1

[1] = target: Fuc(a1-2)Gal(b1-3)GalNAc(a1-3)[Fuc(a1-2)]Gal(b1-4)Glc
Method in brief: as §1

[2] = target: Fuc(a1-2)Gal(b1-3)GalNAc(a1-3)[Fuc(a1-2)]Gal(b1-4)GlcNAc
Method in brief: as §1

[3] = target: Fuc(a1-2)Gal(b1-3)GalNAc(b1-3)Gal
Method in brief: as §1

[4] = target: Fuc(a1-2)Gal(b1-3)GalNAc(b1-3)Gal(a1-4)Gal(b1-4)Glc
Method in brief: as §1

[5] = target: Fuc(a1-2)Gal(b1-3)GalNAc(b1-4)[Neu5Ac(a2-3)]Gal(b1-4)Glc
Method in brief: as §1

Fuc(a1-2)Gal(b1-3)GlcNAc = target: Fuc(a1-2)Gal(b1-3)GlcNAc
Method in brief: as §1

[6] = target: Fuc(a1-2)Gal(b1-3)GlcNAc(b1-2)Man(a1-3)[Fuc(a1-2)Gal(b1-3)GlcNAc(b1-2)Man(a1-6)]Man(b1-4)GlcNAc(b1-4)GlcNAc
Method in brief: as §1

[7] = target: Fuc(a1-2)Gal(b1-3)GlcNAc(b1-2)Man(a1-3)[Fuc(a1-2)Gal(b1-3)GlcNAc(b1-2)Man(a1-6)]Man(b1-4)GlcNAc(b1-4)[Fuc(a1-6)]GlcNAc
Method in brief: as §1

[8] = target: Fuc(a1-2)Gal(b1-3)GlcNAc(b1-3)Gal(b1-4)Glc
Method in brief: as §1

[9] = target: Fuc(a1-2)Gal(b1-3)GlcNAc(b1-3)GalNAc
Method in brief: as §1

[10] = target: Fuc(a1-2)Gal(b1-3)GlcNAc(b1-3)[Fuc(a1-2)Gal(b1-3)GlcNAc(b1-6)]GalNAc
Method in brief: as §1

[11] = target: Fuc(a1-2)Gal(b1-3)GlcNAc(b1-3)[Gal(b1-4)GlcNAc(b1-6)]Gal(b1-4)Glc
Method in brief: as §1

[12] = target: Fuc(a1-2)Gal(b1-3)GlcNAc(b1-3)[Neu5Ac(a2-6)Gal(b1-4)GlcNAc(b1-6)]Gal(b1-4)Glc
Method in brief: as §1

[13] = target: Fuc(a1-2)Gal(b1-3)GlcNAc6S
Method in brief: as §1

[14] = target: Fuc(a1-2)Gal(b1-3)[Fuc(a1-4)]GlcNAc
Method in brief: as §1

[15] = target: Fuc(a1-2)Gal(b1-3)[Fuc(a1-4)]GlcNAc(b1-2)Man(a1-3)[Fuc(a1-2)Gal(b1-3)[Fuc(a1-4)]GlcNAc(b1-2)Man(a1-3)]Man(b1-4)GlcNAc(b1-4)GlcNAc
Method in brief: as §1

[16] = target: Fuc(a1-2)Gal(b1-3)[Fuc(a1-4)]GlcNAc(b1-2)Man(a1-3)[Fuc(a1-2)Gal(b1-3)[Fuc(a1-4)]GlcNAc(b1-2)Man(a1-6)]Man(b1-4)GlcNAc(b1-4)[Fuc(a1-6)]GlcNAc(b1-4)[Fuc(a1-6)]GlcNAc
Method in brief: as §1

[17] = target: Fuc(a1-2)Gal(b1-3)[Fuc(a1-4)]GlcNAc(b1-3)[Fuc(a1-3)[Gal(b1-4)]GlcNAc(b1-6)]Gal(b1-4)Glc
Method in brief: as §1

[18] = target: Fuc(a1-2)Gal(b1-3)[Fuc(a1-4)]GlcNAc(b1-3)[Gal(b1-4)GlcNAc(b1-6)]Gal(b1-4)Glc
Method in brief: as §1

Fuc(a1-2)Gal(b1-4)Glc = target: Fuc(a1-2)Gal(b1-4)Glc
Method in brief: as §1

Fuc(a1-2)Gal(b1-4)Glc6S = target: Fuc(a1-2)Gal(b1-4)Glc6S
Method in brief: as §1

Fuc(a1-2)Gal(b1-4)GlcNAc = target: Fuc(a1-2)Gal(b1-4)GlcNAc
Method in brief: as §1

[19] = target: Fuc(a1-2)Gal(b1-4)GlcNAc(b1-2)Man
Method in brief: as §1

[20] = target: Fuc(a1-2)Gal(b1-4)GlcNAc(b1-2)Man(a1-3)[Fuc(a1-2)Gal(b1-4)GlcNAc(b1-2)Man(a1-6)]Man(b1-4)GlcNAc(b1-4)GlcNAc
Method in brief: as §1

[21] = target: Fuc(a1-2)Gal(b1-4)GlcNAc(b1-2)Man(a1-3)[Fuc(a1-2)Gal(b1-4)GlcNAc(b1-2)Man(a1-6)]Man(b1-4)GlcNAc(b1-4)[Fuc(a1-6)]GlcNAc
Method in brief: as §1

[22] = target: Fuc(a1-2)Gal(b1-4)GlcNAc(b1-2)[Fuc(a1-2)Gal(b1-4)GlcNAc(b1-4)]Man(a1-3)[Fuc(a1-2)Gal(b1-4)GlcNAc(b1-2)Man(a1-6)]Man(b1-4)GlcNAc(b1-4)GlcNAc
Method in brief: as §1

[23] = target: Fuc(a1-2)Gal(b1-4)GlcNAc(b1-3)Gal(b1-4)GlcNAc
Method in brief: as §1

[24] = target: Fuc(a1-2)Gal(b1-4)GlcNAc(b1-3)Gal(b1-4)GlcNAc(b1-2)Man(a1-3)[Fuc(a1-2)Gal(b1-4)GlcNAc(b1-3)Gal(b1-4)GlcNAc(b1-2)Man(a1-6)]Man(b1-4)GlcNAc(b1-4)GlcNAc
Method in brief: as §1

[25] = target: Fuc(a1-2)Gal(b1-4)GlcNAc(b1-3)Gal(b1-4)GlcNAc(b1-3)Gal(b1-4)GlcNAc
Method in brief: as §1

[26] = target: Fuc(a1-2)Gal(b1-4)GlcNAc(b1-3)GalNAc
Method in brief: as §1

[27] = target: Fuc(a1-2)Gal(b1-4)GlcNAc(b1-3)[Fuc(a1-2)Gal(b1-4)GlcNAc(b1-6)]GalNAc
Method in brief: as §1

[28] = target: Fuc(a1-2)Gal(b1-4)GlcNAc(b1-3)[Fuc(a1-3)[Gal(b1-4)]GlcNAc(b1-6)]Gal(b1-4)Glc
Method in brief: as §1

[29] = target: Fuc(a1-2)Gal(b1-4)GlcNAc(b1-6)GalNAc
Method in brief: as §1

[30] = target: Fuc(a1-2)Gal(b1-4)GlcNAc6S
Method in brief: as §1

[31] = target: Fuc(a1-2)Gal(b1-4)[Fuc(a1-3)]GlcNAc
Method in brief: as §1

[32] = target: Fuc(a1-2)Gal(b1-4)[Fuc(a1-3)]GlcNAc(b1-2)Man(a1-3)[Fuc(a1-2)Gal(b1-4)[Fuc(a1-3)]GlcNAc(b1-2)Man(a1-6)]Man(b1-4)GlcNAc(b1-4)[Fuc(a1-6)]GlcNAc
Method in brief: as §1

[33] = target: Fuc(a1-2)Gal(b1-4)[Fuc(a1-3)]GlcNAc(b1-2)[Fuc(a1-2)Gal(b1-4)[Fuc(a1-3)]GlcNAc(b1-4)]Man(a1-3)[Fuc(a1-2)Gal(b1-4)[Fuc(a1-3)]GlcNAc(b1-2)Man(a1-6)]Man(b1-4)GlcNAc(b1-4)GlcNAc
Method in brief: as §1

[34] = target: Fuc(a1-2)Gal(b1-4)[Fuc(a1-3)]GlcNAc(b1-3)Gal(b1-4)[Fuc(a1-3)]GlcNAc
Method in brief: as §1

[35] = target: Fuc(a1-2)Gal(b1-4)[Fuc(a1-3)]GlcNAc(b1-3)Gal(b1-4)[Fuc(a1-3)]GlcNAc(b1-3)Gal(b1-4)[Fuc(a1-3)]GlcNAc
Method in brief: as §1

[36] = target: Fuc(a1-2)Gal(b1-4)[Fuc(a1-3)]GlcNAc(b1-3)GalNAc
Method in brief: as §1

[37] = target: Fuc(a1-2)Gal(b1-4)[Fuc(a1-3)]GlcNAc(b1-3)[Neu5Ac(a2-6)Gal(b1-4)GlcNAc(b1-6)]Gal(b1-4)Glc
Method in brief: as §1

[38] = target: Fuc(a1-2)Gal3S(b1-4)GlcNAc
Method in brief: as §1

[39] = target: Fuc(a1-2)Gal6S(b1-3)GlcNAc
Method in brief: as §1

B1: Epa10 (protein)
chain: MNEKIFRYLTLLFLFELARSLPVEDKLNIKKVFEKRAVDFTPFAHYPRPEGCSSPPNSVSVGLHMNLYNYPYLYVKPSTKGMFTNDTNSDADGETDGDSAGGIEGRAGQCWNPEYQDPNFPRFGYKQYGEFGASDNVNGDISWDHNEFTEGCKPVLAALPPGYNYPDEITFSNFTMVLSGYFKPKTSGVYKFELKADDFILFNFGAKNAFECCNREESIDNFGPYVAYAMWPNQADQELEVYLFEDSYYPLRLFYNNRDYHSKFKIGFYPPGQTTITFDFDGYLFMLDDTGNECRDSIRYRTVCDDKVVDDTTYSTRYSTSMVPGGGSDVITIYYIRMKCEEEDCLGQWDPINNVCYSPDDCADDGGYWNGQMCDQSCKLEGGIVNPDTGDCDKSCIESGGFLDENGNCDTTCRDDGGMLVEGQCDYQCKEAGGILVGDHCDTTCVDSGGKLNEDGTCDHSCRDQGGQLDENGECDTSCKDSGGMLIEGECDTSCKDEGGQLDDNNECINHCKDQGGIIDENGNCDTSCKDSGGKLDESGACDTSCRDDGGIIDENGNCNTTCRDDGGIIVGDHCDTSCRDAGGILIEDHCDTTCRDSGGKLNEDGTCDHSCRDQGGQLDENGKCDYSCKNGGGKLDEDGNCDMSCKENGGKLDENGDCDLSCKEDGGKLDGNGDCDYSCKEEGGVIDESGNCNTTCKDSGGQIIDGECNYGCIEVGGVVIDGECDTSCIDSGGILDGDGNCDRSCIESGGVLEDGACNTTCRDSGGQLNVDGTCDTSCRDDGGMLVEGQCDYQCKEAGGILEDGECVFPPTSSSTSETSSTTDQSSLQSDDSSMESSSTPMDSSTIESSSSEIITSESESESVPIASSSSEVMTSESESESIPILTSSSEIPIASSSSEIPVASSSSEIIIPESESESVPVASSSSEIPIASSSSEIPVASSSSEIPVASSSSEIIIPESESESIPIESTSSEAVSSRSESDSSYPTPTPTTTTITTWPNPIQPTTSNSSPIVSSSTETPGIAESSSRISDLESSRRTSILGDDRTRTRTTITSTITEDGQIITITTTVTGFVPEPTGETEGNGSDDENPENPIENNTDENEFLDPEFTDDIPDDPAGPEDNGNGPVNPEQGNDNDPVNLEDSGNNGAVNPEQAPVNDEDNGGNDPVNPEQDNNNGPANPGQDSTNGSGNSDQIDNNPPTPEENAGDGNSNGNDPADPSRRTSILGDERTRASPGGTSQPTGANGNVNGNSPGANVNGGGTGNSNNNNNNNNNNNNGNAPNGGDGSNGDANQGPSRRTSLLGDERTRAGQAAPTGGSSPDNGIAGDTSNNGGAIVSQQVDDGGAGSPRRTSILGDVRSRTTLNGEVLNFEGSGVRRAVAGNLALPLMMVGLVFNL
**Q.** What does the source list for B1?
**A.** glycan array binding signal (z-score) (Fuc(a1-2)Gal): -0.289; glycan array binding signal (z-score) (Fuc(a1-2)Gal(b1-3)GalNAc): -0.217; glycan array binding signal (z-score) [1]: -0.258; glycan array binding signal (z-score) [2]: -0.146; glycan array binding signal (z-score) [3]: -0.197; glycan array binding signal (z-score) [4]: -0.249; glycan array binding signal (z-score) [5]: -0.009; glycan array binding signal (z-score) (Fuc(a1-2)Gal(b1-3)GlcNAc): -0.264; glycan array binding signal (z-score) [6]: -0.017; glycan array binding signal (z-score) [7]: -0.257; glycan array binding signal (z-score) [8]: -0.271; glycan array binding signal (z-score) [9]: -0.211; glycan array binding signal (z-score) [10]: -0.174; glycan array binding signal (z-score) [11]: -0.226; glycan array binding signal (z-score) [12]: -0.195; glycan array binding signal (z-score) [13]: -0.163; glycan array binding signal (z-score) [14]: -0.222; glycan array binding signal (z-score) [15]: -0.135; glycan array binding signal (z-score) [16]: -0.125; glycan array binding signal (z-score) [17]: -0.275; glycan array binding signal (z-score) [18]: -0.215; glycan array binding signal (z-score) (Fuc(a1-2)Gal(b1-4)Glc): -0.164; glycan array binding signal (z-score) (Fuc(a1-2)Gal(b1-4)Glc6S): -0.148; glycan array binding signal (z-score) (Fuc(a1-2)Gal(b1-4)GlcNAc): -0.239; glycan array binding signal (z-score) [19]: -0.188; glycan array binding signal (z-score) [20]: 0; glycan array binding signal (z-score) [21]: 0.036; glycan array binding signal (z-score) [22]: -0.245; glycan array binding signal (z-score) [23]: -0.202; glycan array binding signal (z-score) [24]: -0.132; glycan array binding signal (z-score) [25]: -0.22; glycan array binding signal (z-score) [26]: -0.256; glycan array binding signal (z-score) [27]: -0.265; glycan array binding signal (z-score) [28]: -0.284; glycan array binding signal (z-score) [29]: -0.172; glycan array binding signal (z-score) [30]: -0.198; glycan array binding signal (z-score) [31]: -0.367; glycan array binding signal (z-score) [32]: -0.101; glycan array binding signal (z-score) [33]: -0.185; glycan array binding signal (z-score) [34]: -0.228; glycan array binding signal (z-score) [35]: -0.342; glycan array binding signal (z-score) [36]: -0.094; glycan array binding signal (z-score) [37]: -0.219; glycan array binding signal (z-score) [38]: -0.268; glycan array binding signal (z-score) [39]: -0.246
